# Measured values: the RNAGym collection of RNA variant scans (doi:10.7554/elife.90254)
# The source gives no read counts; variants with many changes may rest on few reads.
# B1: LINE1-full (parent)
# chain: UACGUAGGUGGUUUUCCCCUGAUAGUGCUAAGGGGGCCUGGAAGUUUGGACUGGGCAGAGCUCAACACAGCGUGGCAAAGUGGCUGUGGCUAGACUGCCUCUCUGGAUUCCUCGUCACUCAGCAGGGCAUCUCUGAGAGAAAUGCC
# Variants of: B1
# Assay: self-cleavage, relative activity (ratio to wild type); higher = more cleavage; in vitro, sequencing; the parent is a self-cleaving ribozyme
row,Variant,self-cleavage
1,GACGUAGGUGGUUUUCCCCUGAUAGUGCUAAGGGGGCCUGGAAGUUUGGACUGGGCAGAGCUCAACACAGCGUGGCAAAGUGGCUGUGGCUAGACUGCCUAUCUGGAUUCCCCGUCUCUCAGCAGGGCAUCUCUGAGAGAAAUGCC [U1G C101A U112C A117U],0.92
2,UACGUAGGUGGUUUUCCCCUGAUAGUGCUAAGGGGGCCUGGAAGUUUGGACUGGGCAGAGCUCAACACAGCGUGGCAAAGAGGCUGUGGCUAGACUGCCUCUCUGGAUUCCUCGUCACUCAGUAGGGCAUCUCUGAGAGAAACGCC [U81A C123U U143C],1.97
3,UACGUAGGUGGUUUUCCCCUGAUAGUGCUAAGGGGGCCUGGAAGUUUGGAUUGGGCAGAGCUCAACACAGCGUGGCGAAGUGGCUGUGGCUAGACUGCCUCUCUGGAUUCCUCGUCACUCAGCAGGGCAUCUCUGAGAGAAAAGCC [C51U A77G U143A],2.66
4,UACGUAGGUGGUUUUCCCCUGAUAGUGCUAAGGGGGCCUGGAAGUUUGGACUGGGCAGGGCUCAACACGGCGUGGCAAAGUGGCUGUGGCUAGACUGCCUCUCUGGAUUCCUCGUCACUCAGCAGGGCAUCUCUGAGAGAGAUGCC [A59G A69G A141G],0.12
5,UACAUAGGUGGUUUUCCCCUGAUAGCGCUAAGGGGGCCUGGAAGUUUGGACUGGGCAGAGCUCAACACAGCGUGGCAAAGUGGCUGUGGCUAGACUGCCUCUCUGGAUACCUCGUCACUCAGCAGGGCAUCUCUGAGAGAAAUGCC [G4A U26C U109A],1.35
6,AACGUAGGCGGUUUUCCCCUGAUAGCGCUAAGGGGGCCUGGAAGUUUGGACUGGGCAGAGCUCAACACAGCGUGGCAAAGUGGCUGUGGCUAGACUGCCUCCCUGGAUUCCUCGUCACUCAGCAGGGCAUCUCUGAGAGAAAUGCC [U1A U9C U26C U102C],0
7,UACGUAGGUGGUUUUCCCCUGAUAGUGCUAAGGGGGCCUGGAAGUUUGGACUGGGCAGAGCUCGACACAGCAUGGCAAAGUGGCUGAGGCUAGACUGCCUCUCUGGAUUCCUCGUCACUCAGCAGGGCAUCUCUGAGAGAAAUGCC [A64G G72A U87A],0.05
8,UACGUAGGUGGUUUUCCCCUGAUAGUGCUAAGGGGGCCUGGAUGUUUGGACUGGGCAGAGCUCAACACAGCGUGGCAAAGUGGCUGUGGCUAGACUGCCUCUCUGGAUUCCUCGUCACACAGCAGGGCAUCUCUGAGAGAGAUGCC [A43U U119A A141G],2.87
9,UGCGUAGGUGGUUUUCCCCUGAUAGUGCUAAGGGGGCCUGGAAGUUUGGACUGGACAGAGCUCAACACAGCGUGGCAAAGUGGCUGUGACUGGACUGCCUCUCUGGAUUCCUCGUCACUCAGCAGGGCAUCUCUGAGAGAAGUGCC [A2G G55A G89A A92G A142G],0.07
10,UACGUAAGUGGCUUUCCCCUGAUAGUGCUAAGGGGGCCUGGAAGCUUGGACUGGGCAGAGCCCAACACAGUGUGGCAAAGUGGCUGUGGCUAGACUGCCUCUCUGGAUUCCUCGUCACUCAGCAGGGCAUCUCUGAGAGAAAUGCC [G7A U12C U45C U62C C71U],0.09
11,UACGUAGGUGGUUUUCCCUUGAUAGUGCUAAGGGGGCCUGGAAGUUUGGACUGGGCAGAGCUCAACACAGCGUGGCAGAGUGGCUGUGGCUAGACUGCCUCUCUGGAUUCCUCGUCACUCAGCAGGGCACCUCUGAGAGAAAUGCC [C19U A78G U130C],0.65
12,UACGUAGGUGGUUUUCCCCUGAUAGUGCUAAGGGGGCCUUGAAGUUUGGACUGGGCAGAGCUCAACACAGCGUGGCAAAGUGGCUGUGGCCAGACUGCCGCUCUGGAUUCCUCGUCACUCUGCAGGGCAUCUCUGAGGGAAAUGCC [G40U U91C U100G A121U A138G],0.33
13,UACGUAGGUGGUUUUCCCCUGAUAGUGCUAAGGGGGCCUGGAAGUUUGGACUGGGCAGAGCUCAACACAGCGUGGCCAAGUGGUUGGGGCUAGACUGCCUCUCUGGAUUCCUCGUCACUCAGCAGGGCAUCUCUGAGAGAAAUGCC [A77C C84U U87G],0.03
14,UACGUAGGUGGUUUUCCCCUGAUAGUGCCAAGGGGGCCUGGAAGUUUGGACUGGGCAGAGCUCAACACAGCGUGGCAAAGUGGCUGUGGCUAGACUGCCUCGCUGGAUUCCUCGUCACUCAGCAGGGCAUCCCUGAGAGAAAUGCC [U29C U102G U132C],0
15,UACGUAGGUGGUUUUCCCCUGAUAGUGCUAAGGGGGCCUGGAGGUUUGGACUGGGCAGAGCCCUACACAGCGUGGCAAAGUGGCUGUGGCUAGACUGCCUCUCUGGAUUCCUCGUCACUCAGCAGGGCAUCUCUGAGAGAAAUGCC [A43G U62C A64U],0.15
16,UACGUAGGUGGCUUUCCCCUGAUAGUGCUAAGGGGGCCUGGAAGUUUGGACUGGGCAGAGCUCAACACAGCGUGGCAAGGUGGCUGUGGCUAGACUGCCUCUCUGGAUUCCUCGUCACUCAGCAGGGCAUCUCUGAGAGUAAUGCC [U12C A79G A140U],1.35
17,UACGUAGGUGGUUUUCCCCUGAUAGUGCUAAGGGGGCCUGGAAGUUUGGACUGGGCAGAGCUCAACACAGCGUGGCUAAGUGGCUAUGGCUAGACUGCCUCUCUGGAUUCCUCGUCUCUCAGCAGGGCAUCUCUGAGAGAAAUGCC [A77U G86A A117U],0.03
18,UACGUGGGUGGUUUUCCCCUGAUAGUGCUAAGGGGGCCUGGAAGUUUGGACUGGGCAGAGCUCAACACAGCGUGGCAAAGUGGCUGUGGCUAGACUGCCUCUCUGGAUUCCCCGUCACUCAGCAGGGCAUCUCUGAGAGAAGAGCC [A6G U112C A142G U143A],1.73
19,UACGUAGGUGGUCUUCCCCUGAUAGUGCUAAGGGGGCCUGGAAGUUUGGACUGGGCAGAGCUCAACACAGCGUGGCAAGGUGGCUGUGGCUAGACUGCCUCCCUGGAUUCCUCGUCACUCAGCAGGGCAUCUCUGAGAGAAAUGCC [U13C A79G U102C],0.38
20,UACGUAGGUGGUUUUCCCCUGAUAGUGCUAAGGGGGCCUGGAAGCUUGGACUGGGCAGAGCUCAACAUAGCGUGGCAAAGUGGCUGUGGCUAGACUGCCUCUCUGGAUUCCUCGUCACUCAGCAGGGCAUCUCUGAGAGAUAUGCC [U45C C68U A141U],0.14

row,Variant,self-cleavage
1,UACGUUGGUGGUUUUCCCCUGAUAGUGCUAAGGGGGCCCGGAAGUUUGGACUGGGCAGAGCUCAACUCAGCGUGGCAAAGUGGCUGUGGCUAGACUGCCUCUCUGGAUUCCUCGUCACUCUGCAGGGCAUCUCUGAGAGAAAUGCC [A6U U39C A67U A121U],0.5
2,UACGUAGGUGGUUUUCCCCUGAUUGUGCUGAGGGGGCCUGGAAGUUUGGACUGGGCAGAGCUCAACACAGCGUGGCAUAGUGGCUGUGGCUAGACUGCCUCUCUGGGCUCCUCGUCACUCUGCAGGGCAUCUCAGAGAGAAAUGCC [A24U A30G A78U A107G U108C A121U U134A],0
3,UACGUAGGUGGUCUUCCCCUGAUAGUGCUAAGGGGGCCUGGAAGUUUGGACUGGGCAGAGCUCAACACAGCGUGGCAAAGUGGCUGUGGCUGGACUGCCUCUCUGGAUUCCUCGUCACCCAGCAGGGCAUCUCUGAGAGAAAUGCC [U13C A92G U119C],0.19
4,UACGUAGGUGGUUUUCCCCUGAUAGUGCUAAGGGGGCCUGGAAGUUUGGUCUGGGCAGAGCUCAACACAGCGUGGCAAAGUGGCUGUGGCUAGACUGCCUCUCAGGAUUCCUCGUCACCCAGCAGGGCAUCCCUGAGAGAAAUGCC [A50U U104A U119C U132C],0.4
5,UACGUAGGUGGUUCUCCCCUGAUAGUGCUAAGGGGGCCUGGAAGUUUGGACAGGGCAGAGCUCAACACAGCGUGGCAAAGUGGCUGUGGCUAGACUGCCUCUCUGGAUUCCUCGUCACUCAGCAGGGCAUCCCUGAGAGAAAUGCC [U14C U52A U132C],0.78
6,UACGUAGGUGGUUUUCCACUGAUAGUGCUAAGGGGGCCUGGAAGUUUGGACAGGGCAGAGCUCAACACAGCGUGGCAAAGUGGCUGUGGCUAGACUGCCUCCCUGGAUUCCUCGUCACUCAGCAGGGCACCUCUGAGAGAAAUGCC [C18A U52A U102C U130C],1.16
7,UACGUAGGUGGUUUUCCCCUGAUAGUGCUAAGGGGGCCUGGAAGUUUGGACUGGGCAGAGCACAACACAGCGUGGCAAUGUGGCUGUGGCUAGACUGCCUCUCUGGACUCCUCGUCACUCAGCAGGGCAUCUCUGAGAGAAAUGCC [U62A A79U U108C],0.03
8,UACGUAGGUGGUUAUCCCCUGAUAGUGCUAAGGGGGCCUGGAAGUUUGGGCUGGGCAGAGCUCAACACAGCGUGGCAAAGUGGCUGUGGCUAGGCUGCCUCUCUGGAUUCCUCGUCACUCAGCAGGGCAUCUCUGAGAGAAAUGCC [U14A A50G A94G],0
9,UACGUAUGUGGUUUUCCCCUGAUAGUGCUAAGGAGGCCUGGAAGUUUGGGCUGGGCAGAGCUCAACACAGCGUGGCAAAGUGGCUGUGGCUAGACUGCCUCUCUGGAUUCCUCGUCACUCAGCAGGGCAUCUCUGAGAGAAGUGCC [G7U G34A A50G A142G],0.81
10,UACGUAGGUGGUUUUCCCCUGAUAGUGCUAAGGGGGCCUGGAAGUUUGGUCUGGGCAGGGCUCAACACAGCGUGGCAAAGUGGCUGUGGCUAGACCGCCUCUCUGGAUUCCUCGUCACUCAGCAGGGCAUCUCUGAGAGAAAUGCC [A50U A59G U96C],0.1
11,CACGUAGGUGGUUUUCCCCUGAUAGUGCUAAGGGGGCCUGGAAGUUUGGACUGGGCAGAGCUCAACACAGCGUGGCAAAGUGGCUGUGGCUAGACUGCCUCUCUGGACUCCUCGUCACUCAGCAGGGCGUCUCUGAGAGAAAUGCC [U1C U108C A129G],2.7
12,UACGUAGGUGGUUUUCCCCUGAUAGUGUUAAGGGGACCUGGAAGUUUGGACUGGGCAGAGCUCAACACAGCGUGGCAAAGUGGCUGUGGCCAGACUGCCUCUCUGGAUUCCUCGUCACUCAGCAGGGCAUCUCUGAGAGAAAUGCC [C28U G36A U91C],0.52
13,UACGUAGGUGGUUUUCCCCUGAUAGUGCUAAGGGGGCCUGGAAGUUAGGACUGGGCAGAGCUCAACACAGCGUGGCCAAGUGGCCGUGGCUAGACUGCCUCUCUGGACUCCUCGUCACUCAGCAGGGCAUCUCUGAGAGAAAUGCC [U47A A77C U85C U108C],0.12
14,UACGUAGGGGGUUUUCCCCUGAUAGUGCUAAGGGGGCCUGGAAGUUUGGACUGGGCAGGGCUCAACACAGCGUGGCAAAGUGGCUGUGGCUAGACUGCCUCUCUGGAUUCCUCGUCACUCAGCAGGGCAUCUCAGAGAGAAACGCC [U9G A59G U134A U143C],0.18
15,UACGUAGGUGGUUUUCCCCUGAUAGUGCUAAGGGGGCCUGGAAGCUUGGACUGGGCAGAGCUCAACACAGCGUGGCAAAGUGGCUAUGGCUAGACUGCCUCUCUGGAUUCCUCGUCGCUCAGCAGGGCAUCUCUGAGAGAAAUGCC [U45C G86A A117G],0.04
16,UACGUAGGUGGUUUUCCCCCGAUAGUGCUAAGGGGGCCUGGAAGUUUGGACUGGGCAGAGCUCAACACAGCGUGGCAAGGUGGCUGCGGCUAGAUUGCCUCUCUGGAUUCCUCGUCACUCAGCAGGGCAUCUCUGAGAGAGAUGCC [U20C A79G U87C C95U A141G],0.11
17,UACGUAGGUGGUUUUCCCCUGGUAGUGCUAAGGGGGCCUGGAAGUUUGGACUGGGCAGAGCUCAACACAGCGUGGCAAAGUGGCUGUGGCUAGUCUGCCUCUCUGGAUUCCUCGUCACUCAGCAGGGCAUCUCCGAGAGAAAUGCC [A22G A94U U134C],0.28
18,UACGUAGGUGGUUUUCCCCUGAUAGUGCUAAGGGGGCCUGGAAGCUUGGACUGGGCAGAGCUCAACACAGCGUGGCAAAGUAGCUGUGGCUAGACUGCCUCUCUGGAUUCCUCGUCACUCAGCAGGGCAUCUCUGAGAGGAAUGCC [U45C G82A A140G],1.08
19,UACGUAGGUGGUUCUCCCCUGAUAGUGCUAAGGGGGCCUGGAAGCUUGGACUGGGCAGAGCUCAACACAGCGUGGCAAAGUGGCUGUGGCUAGACAGCCUCUCUGGAUUCCUCGUCACUCAGCAGGGCAUCUCUGAGAGAAAUGCC [U14C U45C U96A],0.06
